Laboratory results published in patent US20250333487A1 (CYTOMX THERAPEUTICS, published 2025).

T1: BC2T peptide (leader sequence + BC2T MM), coated on the ELISA plate
T1 peptide: QGQSGQPDRKAAVSHWQQ


Columns and labels:
[1] = biological target: T1, BC2T peptide (leader sequence + BC2T …); assay: ELISA
[2] = biological target: T1, BC2T peptide (leader sequence + BC2T …); assay: ELISA; uPA-treated

Binder | EC50 [1] [µM] | EC50 [2] [µM]
ProC1283 (HC697), Fc-tagged single-domain antibody with no MM attached (Nanobody-IgG1) (Fc fusion, also called unmasked control protein; positive control) QVQLVESGGGLVQPGGSLTLSCTASGFTLDHYDIGWFRQAPGKEREGVSCINNSDDDTYYADSVKGRFTIFMNNAKDTVYLQMNSLKPEDTAIYYCAEARGCKRGRYEYDFWGQGTQVTVSSGGGG[no letters for human IgG1 Fc] | 0.000642 | 
ProC1284 (HC698), single-anchored BC2T-Nb-IgG1 (BC2 tag-1490DNI-Nanobody-IgG1), intact (Fc fusion) QGQSGQPDRKAAVSHWQQGGGSSGGSISSGLLSGRSDNIGGGSQVQLVESGGGLVQPGGSLTLSCTASGFTLDHYDIGWFRQAPGKEREGVSCINNSDDDTYYADSVKGRFTIFMNNAKDTVYLQMNSLKPEDTAIYYCAEARGCKRGRYEYDFWGQGTQVTVSSGGGG[no letters for human IgG1 Fc] | 6.18 | 

Other lines, results leading:

EC50 [1] [µM] | EC50 [2] [µM] | Binder
 | 0.000854 | product of ProC1284 and uPA (ProC1284+uPA) (Fc fusion) GGGSQVQLVESGGGLVQPGGSLTLSCTASGFTLDHYDIGWFRQAPGKEREGVSCINNSDDDTYYADSVKGRFTIFMNNAKDTVYLQMNSLKPEDTAIYYCAEARGCKRGRYEYDFWGQGTQVTVSSGGGG[no letters for human IgG1 Fc]
 | 10.8 | product of ProC1285 and uPA (ProC1285+uPA) (Fc fusion, engineered Cys (Q157C) disulfide-bonded to Cys 3 of the mask fragment; Cys 3 of the leader disulfide-bonded to the engineered Cys (Q157C) of the Nb chain) chain 1: QGCSGQPDRKAAVSHWQQGGGSSGGS chain 2: GGGSQVQLVESGGGLVQPGGSLTLSCTASGFTLDHYDIGWFRQAPGKEREGVSCINNSDDDTYYADSVKGRFTIFMNNAKDTVYLQMNSLKPEDTAIYYCAEARGCKRGRYEYDFWGCGTQVTVSSGGGG[no letters for human IgG1 Fc]
